Measured values published in PMC11863771 (Cell Communication and Signaling : CCS, 2025).

B1: S1P1-mCit (receptor, human, UniProt P21453 1-382, looked up)
chain: MGPTSVPLVKAHRSSVSDYVNYDIIVRHYNYTGKLNISADKENSIKLTSVVFILICCFIILENIFVLLTIWKTKKFHRPMYYFIGNLALSDLLAGVAYTANLLLSGATTYKLTPAQWFLREGSMFVALSASVFSLLAIAIERYITMLKMKLHNGSNNFRLFLLISACWVISLILGGLPIMGWNCISALSSCSTVLPLYHKHYILFCTTVFTLLLLSIVILYCRIYSLVRTRSRRLTFRKNISKASRSSEKSLALLKTVIIVLSVFIACWAPLFILLLLDVGCKVKTCDILFRAEYFLVLAVLNSGTNPIIYTLTNKEMRRAFIRIMSCCKCPSGDSAGKFKRPIIAGMEFSRSKSDNSSHPQKDEGDNPETIMSSGNVNSSS
notes: sphingosine-1-phosphate receptor type 1 (S1P1), human cDNA S1PR1 from the Missouri S&T cDNA Resource Center; also called mCit-tagged S1P1; source: HEK293A, transiently transfected, in cells; not shown: mCitrine (mCit), C-terminal, kept
B2: S1P3-mCit (receptor, human, UniProt Q99500 1-378, looked up)
chain: MATALPPRLQPVRGNETLREHYQYVGKLAGRLKEASEGSTLTTVLFLVICSFIVLENLMVLIAIWKNNKFHNRMYFFIGNLALCDLLAGIAYKVNILMSGKKTFSLSPTVWFLREGSMFVALGASTCSLLAIAIERHLTMIKMRPYDANKRHRVFLLIGMCWLIAFTLGALPILGWNCLHNLPDCSTILPLYSKKYIAFCISIFTAILVTIVILYARIYFLVKSSSRKVANHNNSERSMALLRTVVIVVSVFIACWSPLFILFLIDVACRVQACPILFKAQWFIVLAVLNSAMNPVIYTLASKEMRRAFFRLVCNCLVRGRGARASPIQPALDPSRSKSSSSNNSSHSPKVKEDLPHTAPSSCIMDKNAALQNGIFCN
notes: sphingosine-1-phosphate receptor type 3 (S1P3), human cDNA S1PR3 from the Missouri S&T cDNA Resource Center; also called mCit-tagged S1P3; source: HEK293A, transiently transfected, in cells; not shown: mCitrine (mCit), C-terminal, kept

Molecular target: T1, CXCR4-Rluc8 (human, UniProt P61073 1-352)
T1 construct: C-X-C chemokine receptor type 4 (CXCR4), human cDNA from the Missouri S&T cDNA Resource Center; source: HEK293A, transiently transfected, in cells; not shown: Rluc8, C-terminal, kept
Assay: FRET or BRET; quantitative BRET saturation in HEK293A cells: fixed amount of Rluc8-tagged donor, increasing amounts of mCit-tagged acceptor, coelenterazine h 5 µM; no ligand, no further receptor coexpressed
Details: partners not purified

T1 sequence (P61073 whole entry): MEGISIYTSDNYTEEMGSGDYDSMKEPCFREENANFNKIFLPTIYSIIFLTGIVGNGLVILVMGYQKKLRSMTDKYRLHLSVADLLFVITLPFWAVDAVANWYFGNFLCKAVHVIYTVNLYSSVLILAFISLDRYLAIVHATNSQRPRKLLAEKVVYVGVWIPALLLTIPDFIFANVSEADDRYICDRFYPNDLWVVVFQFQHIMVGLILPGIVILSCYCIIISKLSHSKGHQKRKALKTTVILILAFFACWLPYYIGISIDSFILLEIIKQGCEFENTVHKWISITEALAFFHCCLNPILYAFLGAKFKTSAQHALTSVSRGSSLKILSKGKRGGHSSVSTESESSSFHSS

Binder | BRET50
B1 | 5.17 ± 0.338
B2 | 6.47 ± 0.377
